For 89 compounds, survival results are on record in PubChem BioAssay AID463173 (ICCB-Longwood Screening Facility, Harvard Medical School, 2010).

Molecules are shown by their SMILES. Hit rate of the full screen: of about 52,000 compounds, about 1,700 (3.3%) were called active. Rule as the data show it: active = survival mostly below about 52% (no sharp cut-off); inactive = mostly above about 56%. Some of the results follow.

In the test the test system is Wild type. Briefly: growth inhibition of S. aureus wild type versus tarO mutant, primary screen, teichoic acid synthesis inhibitors, RN4220, OD600 (AID 463173). The conditions noted are these: S. aureus RN4220 wild type/DeltatarO growth, OD600, 18 h, stronger effect = lower value, screened at 18.75 µg/mL (by protocol).
Consider `CCN1CCN(C(c2ccccc2)c2sc3nc(-c4ccco4)nn3c2O)CC1` (centres undefined), for which the survival was inactive: 83%.

Take `CCCn1c(C(O)c2cc(OC)c(OC)c(OC)c2)nc2ccccc21` (centres undefined): the survival is inactive: 111%.

As to `COc1ccccc1C(=O)n1nc(-c2ccco2)nc1NCc1ccc(Cl)cc1`, the survival is inactive: 77%.

As to `COc1ccc(N2CCN(C(=O)c3ccc4c(c3)N(Cc3ccc(F)cc3)C(=O)c3ccccc3S4=O)CC2)cc1` (centres undefined), the survival was inactive: 139%.

Take `N#Cc1nc2c(nc1C#N)-c1ccccc1C2=O`: the survival was inactive: 74%.

As to `COc1ccccc1NC(=O)c1c(NCc2ccc(C)o2)sc2c1CCC(C)C2` (centres undefined), the survival is inactive: 97%.

With `COCCc1nn2c(=O)cc(COC(=O)COc3ccc(F)cc3)nc2s1`, the survival is inactive: 120%.

As for `COc1ccc(-c2cn3c(n2)sc2cc(C(=O)NCCCN4CCCCCC4)ccc23)cc1`, the survival was inactive: 66%.

Take `CCCC(=O)Nc1ccc(NC(=O)c2ccc3c(c2)OCO3)cc1`: the survival is inactive: 116%.

On to `CCCOC(=O)c1c(NC(=O)C2c3ccccc3Oc3ccccc32)sc2c1CCC(C)C2` (centres undefined), for which the survival is inactive: 80%.

Consider `N#C/C(=C\c1cn(CCOc2ccccc2)c2ccccc12)C(=O)N1CCCC1`, for which the survival is inactive: 121%.

For the compound `Nc1cc(N)nc(SCC(=O)Nc2ccccc2)n1`, the survival was inactive: 108%.

On to `CCC(O)c1cc2c(cc1NC(=O)c1cccc(Br)c1)OCCO2` (centres undefined), for which the survival is inactive: 71%.

As to `N#Cc1nc(-c2ccc(COc3ccccc3)o2)oc1NCc1ccccc1`, the survival was inactive: 86%.

Turning to `Cc1ccc(CNC(=O)CSc2nc(=O)[nH]c3c2CCCC3)cc1`, the survival was inactive: 81%.

With `CN(C)CCCN(C(=O)c1cccs1)c1nc2ccc(F)cc2s1`, the survival is inactive: 76%.

`O=C(CN1C(=O)CCc2cc(S(=O)(=O)N3CCOCC3)ccc21)Nc1cccc(Cl)c1`: the survival was inactive: 63%.

For the compound `CC1(C)Nc2ccccc2C(=O)N1c1ccccc1`, the survival is inactive: 108%.

Consider `Cc1nc2ccccc2n1CCc1nc2c3ccccc3nc(SCC(=O)Nc3ccc(Br)cc3F)n2n1`, for which the survival is inactive: 68%.

Turning to `COc1ccc(-c2nc3ccccc3o2)cc1NC(=O)C(C)Oc1ccc(Cl)cc1Cl` (centres undefined), the survival was active: 8%.

For `CC(C)C12CN3CC(C(C)C)(CN(C1)C3c1ccc(Cl)cc1)C2=O` (centres undefined), the survival is inactive: 62%.

As for `CN1CCN(c2oc(-c3ccc(COc4ccc(Cl)cc4)o3)nc2C#N)CC1`, the survival was inactive: 59%.

As to `COc1ccc(NC(=O)Cn2cnc3sc(C)c(S(=O)(=O)N4CCN(C)CC4)c3c2=O)cc1Cl`, the survival is inactive: 155%.

Turning to `CCCSc1ncc(Cl)c(C(=O)N(Cc2ccc(N(C)C)cc2)C2CCS(=O)(=O)C2)n1` (centres undefined), the survival was inactive: 103%.

On to `CCOC(=O)CNC(=O)N1CCc2cc(S(=O)(=O)N3CCC(C)CC3)ccc21`, for which the survival was inactive: 71%.

As for `CCOC(=O)c1ccc(N2C(=O)c3n[nH]c(C)c3C2c2ccc(C(C)(C)C)cc2)cc1` (centres undefined), the survival was inactive: 81%.

`CNC(=O)C1CCC(Cn2c(=O)[nH]c3ccsc3c2=O)CC1` (centres undefined): the survival was inactive: 80%.

For `Cc1ccccc1-n1c(/C=C/c2c(C)n(C)c3ccccc23)nc2ccccc2c1=O`, the survival was inactive: 66%.

With `CN(c1ccc(C(=O)NCC2CCCO2)cc1)S(C)(=O)=O` (centres undefined), the survival is inactive: 104%.

With `CC(C)(C)OC(=O)N1CCC(c2c(C(=O)N3CCN(c4ncccn4)CC3)cnn2-c2ccccc2)CC1`, the survival was inactive: 87%.

As to `Cc1ccc(NS(=O)(=O)c2ccc3c(c2)NC(=O)CCS3)cc1C`, the survival is inactive: 63%.

With `COc1ccc2[nH]c(=O)c(CNCc3ccccc3)cc2c1`, the survival was inactive: 133%.

As for `Cc1cccc(OC(=O)c2cc(-c3ccc4c(c3)OCCO4)on2)c1`, the survival was active: -7%.

Consider `CCOC(=O)c1cccc(NC(=O)c2cc(CN3CCOCC3)on2)c1`, for which the survival is inactive: 71%.

For the compound `CCOC(=O)c1ccc(NC(=O)COCc2cc(-c3ccc4c(c3)OCO4)on2)cc1`, the survival was inactive: 88%.

As to `CCN(CC)S(=O)(=O)c1ccc(C(=O)Nc2nc3c(Cl)cc(Cl)cc3s2)cc1`, the survival was inactive: 130%.

As to `CC(=O)N1CCc2c(sc3c2c(=O)n(-c2ccccc2)c(=O)n3CC(=O)Nc2ccccc2C)C1`, the survival was inactive: 94%.

For the compound `CCOc1ccc(NS(=O)(=O)c2ccc3[nH]cc(C(=O)N(C)Cc4ccccc4)c(=O)c3c2)cc1`, the survival was active: 1%.

`COc1ccc2c(c1)CC(NC(=O)Nc1c(C)cc(C)cc1C)CO2` (centres undefined): the survival was inactive: 88%.

With `Cc1ccc(OC(=O)c2cc(-c3ccc4c(c3)OCCO4)on2)cc1C`, the survival is active: -7%.

As for `COc1ccc(NC(=O)c2oc3ccccc3c2NC(=O)c2cc3ccccc3o2)cc1`, the survival is inactive: 88%.

As for `Cc1ccccc1S(=O)(=O)Cc1ccc(C(=O)NC2CCCCC2)o1`, the survival is inactive: 119%.

`CCOc1ccc(NC(=O)CSc2nnc3scc(-c4ccc(Cl)cc4)n23)cc1`: the survival is inactive: 74%.

On to `CCOc1cccc2cc(-c3nc4ccc(C(=O)O)cc4[nH]3)c(=O)oc12`, for which the survival is inactive: 88%.

On to `Cc1cccc(-n2c3nc(=O)[nH]c(=O)c-3cc3c(Cl)cccc32)c1C`, for which the survival is inactive: 128%.

Consider `COc1ccc(C)cc1S(=O)(=O)N1CCN(c2cccc(Cl)c2)CC1`, for which the survival is inactive: 73%.

For `COc1cc2oc(=O)c(CC(=O)N3CCCCC3)c(C)c2cc1Cl`, the survival was inactive: 84%.

Regarding `CC(=O)Nc1ccc(C2Sc3ccccc3NC3=C2C(=O)c2ccccc23)cc1` (centres undefined), the survival is inactive: 119%.

As to `CCOC(=O)c1ccc2oc(=O)n(Cc3ccccc3)c2c1`, the survival was inactive: 68%.

As to `Cc1ccc(C)c(CN2C(=O)c3ccccc3S(=O)(=O)c3ccc(C(=O)N4CCCCCC4)cc32)c1`, the survival was inactive: 88%.

Take `O=C(COc1ccc(F)cc1)Nc1ccc2nc(SCC(=O)N3CCc4ccccc43)sc2c1`: the survival is inactive: 82%.

As to `Cc1cc(C)c(NC(=O)c2cc3sc(Cl)cc3n2C)c(C)c1`, the survival was inactive: 109%.

Regarding `COc1ccccc1CNC(=O)c1ccc(N2CCCC2)c(NC(=O)NCCC(C)C)c1`, the survival was inactive: 110%.

`COc1cccc(NC(=O)CSc2ncc(S(=O)(=O)c3ccc(C)c(C)c3)c(=O)[nH]2)c1`: the survival is inactive: 82%.

As to `Cc1oc2ncn(CC(C)C)c(=O)c2c1C(=O)NCCCN1CCCCC1`, the survival is inactive: 73%.

With `Cc1cccc(N2C(=O)CS/C2=N\NC(=O)c2cccnc2)c1C`, the survival was inactive: 107%.

Take `CCCNc1ncccc1C(N)=O`: the survival was inactive: 103%.

On to `CC(=O)c1ccc(N2CCN(S(=O)(=O)c3ccc(-c4cc(C(F)(F)F)on4)s3)CC2)cc1`, for which the survival was inactive: 72%.

In the case of `Cc1ccccc1OCC(=O)OCc1cc(=O)n2nc(C3CCCCC3)sc2n1`, the survival was inactive: 87%.

As for `Cc1csc2nc(COc3ccccc3NC(=O)c3ccco3)cc(=O)n12`, the survival was inactive: 127%.

For `CSc1cccc(NC(=O)Cn2c3ncccc3c(=O)n2-c2ccc(C)cc2)c1`, the survival is inactive: 119%.

As to `CCc1c(-c2ccccc2)nc2ccccc2c1C(=O)NCCc1ccccc1`, the survival is inactive: 79%.

On to `COc1cc(NC(=O)CCc2nc(-c3cccs3)no2)cc(OC)c1OC`, for which the survival was inactive: 89%.

Consider `Cc1ccc2c(=O)cc(C(=O)Nc3cccc(Cl)c3C)oc2c1C`, for which the survival was inactive: 86%.

Consider `CCCCCOC(=O)CSc1ncnc2c1sc1nc(N3CCOCC3)c3c(c12)CCCC3`, for which the survival was inactive: 61%.

As to `COc1ccc(OCCCCn2c(-c3ccc(Cl)cc3)nc3ccccc3c2=O)cc1`, the survival is inactive: 38%.

Consider `Cn1c(=O)c2c(-c3ccccc3Cl)n(-c3cc(Cl)ccc3O)cc2n(C)c1=O`, for which the survival was inactive: 69%.

For `Cc1cc(Nc2cccc(C)c2C)n2cnnc2n1`, the survival is inactive: 101%.

Regarding `Cc1ccc(C(=O)CC2(O)C(=O)N(CCc3ccccc3)c3ccc(Cl)cc32)cc1` (centres undefined), the survival was active: 3%.

Turning to `COCCn1ccc2c(OCC(=O)Nc3cccc(OC)c3)cccc2c1=O`, the survival is inactive: 90%.

With `Cc1cccc(NC(=O)CSc2nc(-c3ccccc3)cn2-c2ccccc2)c1C`, the survival was inactive: 69%.

For `COc1ccc(Nc2ncc(C(=O)N3CCN(c4cccc(Cl)c4)CC3)c3ccccc23)cc1`, the survival was inactive: 73%.

Regarding `Cc1ccc(C)c(-n2c(CCC(=O)O)ccc2-c2ccc(Cl)cc2)c1`, the survival was inactive: 87%.

Regarding `CC(C)CC(C(=O)NCc1ccc(F)cc1)N1Cc2ccccc2C1=O` (centres undefined), the survival is inactive: 72%.

With `CCc1ccccc1NC(=O)CN1CCC(NC(=O)NC2CCCCC2)CC1`, the survival is inactive: 102%.

With `CCOc1ccc(-c2nc(SCC(=O)Nc3ccc(C)c(C)c3)n3[nH]c(=O)cc3n2)cc1`, the survival is inactive: 77%.

Regarding `Cc1ccc(C(C)C)c(OCC(=O)Nc2ccc(C(=O)OC3CCCCC3)cc2)c1`, the survival is active: 6%.

For `Cc1nc(C)c(-c2ccc(SCC(=O)Nc3ccc(C)c(F)c3)nn2)s1`, the survival was inactive: 74%.

Regarding `COc1ccc(CNC(=O)c2c(O)nc3cc(C)ccn3c2=O)cc1`, the survival was inactive: 88%.

In the case of `CCc1ccc2ncc3c(-c4ccc(F)cc4)nn(CC(=O)NCc4ccccc4)c3c2c1`, the survival is inactive: 88%.

For `Cc1ccc(/C=C/c2onc(C)c2S(=O)(=O)N2CCC(C(=O)NCc3ccc(C)o3)CC2)cc1`, the survival was inactive: 152%.

For the compound `CCc1nnc(SCc2nc(-c3ccc(OC)c(OC)c3)oc2C)c2cc3sc(C)cc3n12`, the survival is inactive: 77%.

As for `COc1cccc(CNC(=O)Cc2ccc(NC(=O)N3CCCCc4ccccc43)cc2)c1OC`, the survival was inactive: 54%.

For `Cc1cc(C)cc(N2C(=O)CSC23C(=O)N(CC(=O)NCCc2ccccc2)c2ccccc23)c1` (centres undefined), the survival was inactive: 68%.

With `CC(C)Oc1ccc(CNC(=O)CN2C(=O)CCc3cc(S(=O)(=O)N4CCCCC4)ccc32)cc1`, the survival is inactive: 79%.

As to `Cc1ccc(CSCc2ccc(C(=O)NCCc3ccc(Cl)cc3)o2)cc1`, the survival was inactive: 73%.

As for `COc1ccc(NC(=O)CCS(=O)(=O)c2cccc3nonc23)cc1Cl`, the survival is inactive: 83%.

`CCOC(=O)C1=C(CS(=O)(=O)c2ccc(C)cc2)NC(=O)NC1c1ccc(C(C)C)cc1` (centres undefined): the survival is inactive: 82%.

Take `CN(C(=O)c1ccc2c(c1)N(Cc1cccc(Cl)c1)C(=O)c1ccccc1S2=O)C1CCCCC1` (centres undefined): the survival was inactive: 95%.
